Some of these densities may be calculated back from excess volumes.
Experiment: xn = mol fraction of the nth substance listed
Settings: 101 kPa

O + CCCC[n+]1ccn(C)c1.F[P-](F)(F)(F)(F)F
x1 = 1
Settings	mass density [kg/m3]
298.15 K	997.5
308.15 K	994.3
313.15 K	992.6

CCCC[n+]1ccn(C)c1.F[P-](F)(F)(F)(F)F + O
mass density [kg/m3]
Settings	298.15 K	303.15 K	308.15 K	313.15 K	318.15 K
x1 = 0.0003	998.6	996.9	995.3	993.6	992
x1 = 0.0006	1000.3	998.5	996.8	995.1	993.4
x1 = 0.001	1002.6	1000.7	999	997.2	995.5
x1 = 0.0013	–	1004.2	1002.4	1000.5	998.8
